Laboratory results reported in patent publication US8680122B2, “Substituted pyrrolones as allosteric modulators of glucokinase” (Janssen Pharmacetica N.V., priority 2005, dated 2014).
“And” between values parts separate entries of the source, which are not always exact repeats. Equal values may be shown once. The name of at least one read-out is uncertain.

Tests used:
Liver GK = target: T1, Liver GK (Homo sapiens, UniProt P35557); test: Glucokinase enzyme assay, liver GK; format: biochemical; details: percentage increase in GK activity above vehicle control, compound 50 μM, 12 mM glucose
T1 construct: (His)6; made in house; host or cells: Escherichia coli
T1 sequence (P35557 1-466 isoform P35557-2): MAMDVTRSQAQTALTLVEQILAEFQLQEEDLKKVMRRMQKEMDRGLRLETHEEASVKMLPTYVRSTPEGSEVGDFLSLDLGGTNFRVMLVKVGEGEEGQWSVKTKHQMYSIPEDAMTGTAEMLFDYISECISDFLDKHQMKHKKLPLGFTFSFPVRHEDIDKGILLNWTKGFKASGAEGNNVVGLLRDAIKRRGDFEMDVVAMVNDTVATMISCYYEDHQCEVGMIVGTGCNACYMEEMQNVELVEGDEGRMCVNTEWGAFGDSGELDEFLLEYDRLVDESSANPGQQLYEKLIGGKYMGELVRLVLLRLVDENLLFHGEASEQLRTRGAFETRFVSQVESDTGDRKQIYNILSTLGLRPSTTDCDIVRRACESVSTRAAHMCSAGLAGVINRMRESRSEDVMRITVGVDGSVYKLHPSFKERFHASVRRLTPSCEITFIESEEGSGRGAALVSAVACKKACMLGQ
Excerpt: (§1) An enzymatic Glucokinase (GK) assay using purified recombinant human liver/pancreas enzyme was used to evaluate the effects of potential small molecule modulators.
(§2) In this assay, GK catalyzes glucose phosphorylation in the presence of ATP. The product of this reaction, glucose-6-phosphate, was then oxidized by an excess of glucose-6-phosphate dehydrogenase to produce gluconate-6-phosphate with concomitant reduction of nicotinamide adenine dinucleotide (NAD). […] Human GK (Liver/Pancreas) was expressed in Escherichia coli as a (His) 6-tagged fusion protein and was purified by metal chelate affinity chromatography. The assay was performed in a final incubation volume of 80 μl in a 96-well clear low UV absorption plates. The incubation mixture consisted of 25 mM HEPES, 2 mM MgSO4, 1 mM dithiothreotol (DTT), 1 mg/mL bovine serum albumin (BSA), 1 mM ATP, 1 mM NAD, and 12 mM glucose, 10 units per mL glucose-6-phosphate dehydrogenase, and +/−300 ng per mL GK. For determination of the affinity (Km) and Vmax, different concentrations of glucose ranging from 0.5 mM to 40 mM were used in the assay; see Grimsby, J., Sarabu, R.; Grippo, J. F.; et. al. Science 2003, 301, 370-373. Production of reduced NAD (Nicotinamide Adenine Dinucleotide) was measured as changes in absorption at 340 nm in 96-well plate reader (Envision model #2101 Multilabel Plate reader). % Activation @ 50 μM was calculated as the percentage increase in GK activity above the vehicle control with the effective concentration of the compound being 50 μM. EC50% (μM) was calculated as the effective concentration of the compound that produces 50% activation above the vehicle control, and EC100% (μM) was calculated as the effective concentration of the compound that produces 100% activation above the vehicle control.

Pancreas GK = target: T2, Pancreas GK (Homo sapiens, UniProt P35557); test: Glucokinase enzyme assay, pancreas GK; format: biochemical; details: percentage increase in GK activity above vehicle control, compound 50 μM, 12 mM glucose
T2 construct: (His)6; made in house; host or cells: Escherichia coli
T2 sequence (P35557 1-465): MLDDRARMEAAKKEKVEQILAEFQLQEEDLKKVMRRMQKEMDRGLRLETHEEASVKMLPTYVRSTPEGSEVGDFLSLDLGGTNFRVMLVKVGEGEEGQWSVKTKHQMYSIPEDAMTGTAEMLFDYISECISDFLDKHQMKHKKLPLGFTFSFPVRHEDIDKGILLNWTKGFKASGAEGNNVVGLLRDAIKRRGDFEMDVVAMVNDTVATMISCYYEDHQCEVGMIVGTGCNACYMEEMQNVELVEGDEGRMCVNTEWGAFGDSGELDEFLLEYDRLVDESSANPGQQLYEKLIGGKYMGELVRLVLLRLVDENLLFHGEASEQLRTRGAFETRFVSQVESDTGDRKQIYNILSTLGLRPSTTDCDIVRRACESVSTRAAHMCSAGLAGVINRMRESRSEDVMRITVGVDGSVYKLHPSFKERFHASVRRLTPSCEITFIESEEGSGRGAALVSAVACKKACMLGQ
Excerpt: as §1, §2

Row | % Activation @ 50 μM (Liver GK) | % Activation @ 50 μM (Pancreas GK) | SMILES
1 | 291% and 236% |  | COC(=O)c1ccc(NC(=O)CSC2C(C)=C(C)C(=O)N2Cc2ccc(OC)cc2)nc1 (stereo not drawn) [Compound 1, 6-{2-[1-(4-Methoxy-benzyl)-3,4-dimethyl-5-oxo-2,5-dihydro-1H-pyrrol-2-ylsulfanyl]-acetylamino}-nicotinic acid methyl ester]
2 | 199% and 139% |  | COC(=O)c1ccc(NC(=O)CSC2C(c3ccccc3)=C(c3ccccc3)C(=O)N2Cc2ccc(OC)cc2)nc1 (stereo not drawn) [Compound 4]
3 | 19% and 9% |  | COc1ccc(CN2C(=O)C(C)=C(C)C2SCC(=O)Nc2nc(CC(=O)O)cs2)cc1 (stereo not drawn) [Compound 14, (2-{2-[1-(4-Methoxy-benzyl)-3,4-dimethyl-5-oxo-2,5-dihydro-1H-pyrrol-2-ylsulfanyl]-acetylamino}-thiazol-4-yl)-acetic acid]
4 | 121% and 105% |  | COc1ccc(CN2C(=O)C(C)=CC2SCC(=O)Nc2ccccn2)cc1 (stereo not drawn) [Compound 15, 2-[1-(4-Methoxy-benzyl)-4-methyl-5-oxo-2,5-dihydro-1H-pyrrol-2-ylsulfanyl]-N-pyridin-2-yl-acetamide]
5 | 160% and 150% |  | CC1=C(C)C(SCC(=O)Nc2ccccn2)N(Cc2ccc(OC(F)F)cc2)C1=O (stereo not drawn) [Compound 16, 2-[1-(4-Difluoromethoxy-benzyl)-3,4-dimethyl-5-oxo-2,5-dihydro-1H-pyrrol-2-ylsulfanyl]-N-pyridin-2-yl-acetamide]
6 | 68% and 44% |  | COc1ccc(CN2C(=O)C(C)=C(C)C2SCC(=O)Nc2ccc(C#N)cn2)cc1 (stereo not drawn) [Compound 17, N-(5-Cyano-pyridin-2-yl)-2-[1-(4-methoxy-benzyl)-3,4-dimethyl-5-oxo-2,5-dihydro-1H-pyrrol-2-ylsulfanyl]-acetamide]
7 | 209% | 156% | COc1ccc(CN2C(=O)C(C)=C(C)C2SCC(=O)Nc2ccc(C(N)=O)cn2)cc1 (stereo not drawn) [Compound 18]
8 | 153% and 99% | 113% and 82% | COc1ccc(CN2C(=O)C=C(C)C2SCC(=O)Nc2ccccn2)cc1 (stereo not drawn) [Compound 19, 2-[1-(4-Methoxy-benzyl)-3-methyl-5-oxo-2,5-dihydro-1H-pyrrol-2-ylsulfanyl]-N-pyridin-2-yl-acetamide]
9 | 255% and 183% | 198% and 145% | CC1=C(C)C(SCC(=O)Nc2ccccn2)N(Cc2ccc3c(c2)CCO3)C1=O (stereo not drawn) [Compound 20, 2-[1-(2,3-Dihydro-benzofuran-5-ylmethyl)-3,4-dimethyl-5-oxo-2,5-dihydro-1H-pyrrol-2-ylsulfanyl]-N-pyridin-2-yl-acetamide]
10 | 133% and 175% | 113% and 140% | COc1ccc(CN2C(=O)C(C)=C(C)C2SCC(=O)Nc2cc(C)ccn2)cc1 (stereo not drawn) [Compound 21, 2-[1-(4-Methoxy-benzyl)-3,4-dimethyl-5-oxo-2,5-dihydro-1H-pyrrol-2-ylsulfanyl]-N-(4-methyl-pyridin-2-yl)-acetamide]
11 | 94% | 72% | CCc1ccnc(NC(=O)CSC2C(C)=C(C)C(=O)N2Cc2ccc(OC)cc2)c1 (stereo not drawn) [Compound 22, N-(4-Ethyl-pyridin-2-yl)-2-[1-(4-methoxy-benzyl)-3,4-dimethyl-5-oxo-2,5-dihydro-1H-pyrrol-2-ylsulfanyl]-acetamide]
12 | 161% and 205% | 130% and 161% | COc1ccc(CN2C(=O)C(C)=C(C)C2SCC(=O)Nc2cccc(C)n2)cc1 (stereo not drawn) [Compound 23, 2-[1-(4-Methoxy-benzyl)-3,4-dimethyl-5-oxo-2,5-dihydro-1H-pyrrol-2-ylsulfanyl]-N-(6-methyl-pyridin-2-yl)-acetamide]
13 | 87% | 55% and 77% | COC(=O)c1ccc(NC(=O)COC2C(C)=C(C)C(=O)N2Cc2ccc(OC)cc2)nc1 (stereo not drawn) [Compound 27, 6-{2-[1-(4-Methoxy-benzyl)-3,4-dimethyl-5-oxo-2,5-dihydro-1H-pyrrol-2-yloxy]-acetylamino}-nicotinic acid methyl ester]
14 | 92% | 57% and 83% | COc1ccc(CN2C(=O)C(C)=C(C)C2OCC(=O)Nc2ccc(C)cn2)cc1 (stereo not drawn) [Compound 28, 2-[1-(4-Methoxy-benzyl)-3,4-dimethyl-5-oxo-2,5-dihydro-1H-pyrrol-2-yloxy]-N-(5-methyl-pyridin-2-yl)-acetamide]
15 | 185% and 133% | 147% and 110% | COc1cc(CN2C(=O)C(C)=C(C)C2SCC(=O)Nc2ccccn2)cc(OC)c1 (stereo not drawn) [Compound 29, 2-[1-(3,5-Dimethoxy-benzyl)-3,4-dimethyl-5-oxo-2,5-dihydro-1H-pyrrol-2-ylsulfanyl]-N-pyridin-2-yl-acetamide]
16 | 80% and 59% |  | COc1ccc(CN2C(=O)C(C)=C(C)C2OCC(=O)Nc2ccccn2)cc1 (stereo not drawn) [Compound 30, 2-[1-(4-Methoxy-benzyl)-3,4-dimethyl-5-oxo-2,5-dihydro-1H-pyrrol-2-yloxy]-N-pyridin-2-yl-acetamide]
17 |  | 181% and 190% and 341% | COc1ccc(CN2C(=O)C(C)=C(C)C2SCC(=O)Nc2ccc(C(=O)O)cn2)cc1 (stereo not drawn) [Compound 33]
18 |  | 172.3% | CC1=C(C)C(SCC(=O)Nc2ccccn2)N(Cc2ccc(N(C)C)cc2)C1=O (stereo not drawn) [Compound 34, 2-[1-(4-Dimethylamino-benzyl)-3,4-dimethyl-5-oxo-2,5-dihydro-1H-pyrrol-2-ylsulfanyl]-N-pyridin-2-yl-acetamide]
19 |  | 174.8% | COC(=O)c1ccc(NC(=O)CSC2C(C)=C(C)C(=O)N2Cc2ccc(F)cc2)nc1 (stereo not drawn) [Compound 35, 6-{2-[1-(4-Fluoro-benzyl)-3,4-dimethyl-5-oxo-2,5-dihydro-1H-pyrrol-2-ylsulfanyl]-acetylamino}-nicotinic acid methyl ester]
20 |  | 158.6% and 127.1% | COC(=O)c1ccc(NC(=O)CSC2C(C)=C(C)C(=O)N2Cc2ccc(OC(F)F)cc2)nc1 (stereo not drawn) [Compound 36, 6-{2-[1-(4-Difluoromethoxy-benzyl)-3,4-dimethyl-5-oxo-2,5-dihydro-1H-pyrrol-2-ylsulfanyl]-acetylamino}-nicotinic acid methyl ester]
21 |  | 200% | COC(=O)c1ccc(NC(=O)CSC2C(C)=C(C)C(=O)N2Cc2ccc3c(c2)CCO3)nc1 (stereo not drawn) [Compound 37]
22 |  | 190.9% and 140.4% | COC(=O)c1ccc(NC(=O)CSC2C(C)=C(C)C(=O)N2Cc2cccs2)nc1 (stereo not drawn) [Compound 38, 6-[2-(3,4-Dimethyl-5-oxo-1-thiophen-2-ylmethyl-2,5-dihydro-1H-pyrrol-2-ylsulfanyl)-acetylamino]-nicotinic acid methyl ester]
23 |  | 204.1% and 180.4% | COC(=O)c1ccc(NC(=O)CSC2C(C)=C(C)C(=O)N2Cc2ccc(OC)c(OC)c2)nc1 (stereo not drawn) [Compound 39]
24 |  | 159.9% and 139.7% | COC(=O)c1ccc(NC(=O)CSC2C(C)=C(C)C(=O)N2Cc2cc(OC)cc(OC)c2)nc1 (stereo not drawn) [Compound 40]
